Test results published in the supplement of paper PMC3334620.
The full ranking holds about 33,000 sequences; the median of “E-score (-0.5 to 0.5)” is about -0.032, and the highest 2% start at about 0.36. The list shows a part of the results.

Target: T1, Sko1 (UniProt Q02100)
T1 sequence: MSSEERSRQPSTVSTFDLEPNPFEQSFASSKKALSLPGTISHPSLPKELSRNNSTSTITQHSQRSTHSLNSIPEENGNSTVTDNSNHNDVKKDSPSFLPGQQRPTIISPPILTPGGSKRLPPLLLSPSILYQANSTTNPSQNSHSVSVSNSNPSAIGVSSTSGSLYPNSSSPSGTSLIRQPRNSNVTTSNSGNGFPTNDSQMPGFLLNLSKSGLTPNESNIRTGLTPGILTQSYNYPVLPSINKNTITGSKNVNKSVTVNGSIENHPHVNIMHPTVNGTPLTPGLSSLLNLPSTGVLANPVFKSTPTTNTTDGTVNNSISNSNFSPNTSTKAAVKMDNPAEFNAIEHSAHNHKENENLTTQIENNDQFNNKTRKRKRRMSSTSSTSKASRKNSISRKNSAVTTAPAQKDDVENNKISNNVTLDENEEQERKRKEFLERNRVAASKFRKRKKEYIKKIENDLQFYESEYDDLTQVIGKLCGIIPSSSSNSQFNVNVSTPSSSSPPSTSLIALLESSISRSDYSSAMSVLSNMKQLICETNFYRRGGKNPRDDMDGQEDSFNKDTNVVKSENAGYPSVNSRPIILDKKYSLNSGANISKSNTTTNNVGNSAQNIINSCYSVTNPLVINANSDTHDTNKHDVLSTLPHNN
Experiment: PBM E-score (8-mer binding enrichment) (E-score (-0.5 to 0.5)); higher = stronger / more preferred TF binding; most listed sequences are background and not binding sites
Settings: protein concentration: 200 nM; construct: GST-full length
Summary of the method: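 Universal all-10-mer Agilent arrays, double-stranded by primer extension on fresh or once-stripped slides, were probed with about 100-200 nM GST-tagged yeast transcription factors made by PURExpress. Fluorescent anti-GST detected bound protein, and masliner normalised the scans. E-scores from the Universal PBM Analysis Suite were given to each ungapped eight-base word pooled with its reverse complement.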

| Sequence | PBM E-score |
| --- | --- |
| ACCTCGAG | 0.0402 |
| ACCTCACA | -0.0109 |
| CACCGCGG | -0.204 |
| CATTATTA | 0.136 |
| AAGTAGGG | -0.0549 |
| CAACCTAC | -0.0224 |
| AACTGGGC | -0.351 |
| AGGGCCGG | -0.274 |
| AACTTTTC | 0.115 |
| GGGACGCA | 0.0981 |
| AACATCCC | -0.232 |
| CAGTATTA | 0.146 |
| ACGAGAAT | 0.143 |
| CGCACTAG | -0.0989 |
| CTATCCCC | -0.337 |
| AATTGACC | -0.0283 |
| CAGGACGA | -0.116 |
| AGGTTCCC | -0.237 |
| CGCTCTAG | -0.348 |
| AAACTGCA | -0.203 |
| ACCGGAAG | 0.00439 |
| AGAGCTAT | -0.0901 |

| Sequence | PBM E-score |
| --- | --- |
| GTCTACAC | -0.0279 |
| CCTACTGC | -0.144 |
| CATCCCTA | -0.124 |
| AACTAACA | 0.124 |
| GTCAGTAA | 0.207 |
| AATATCCG | 0.0774 |
| AGTAACCA | 0.0123 |
| AACCACTC | -0.126 |
| AAGCATCT | -0.118 |
| CGAGCGAC | -0.026 |
| CCCTATCA | -0.257 |
| ACAATTGT | -0.0275 |
| ACCTATGA | 0.183 |
| CCCCTCAA | -0.133 |
| GGGCTTAC | -0.129 |
| AAGGTGTG | -0.121 |
| CTACGTCC | 0.298 |
| GTACCCCA | -0.19 |
| ACAGGGCT | -0.13 |
| ACATTACC | 0.146 |
| ATTTAAGA | 0.0259 |
| ACGTAGCC | 0.388 |

| Sequence | PBM E-score |
| --- | --- |
| ATTAGCCA | -0.0892 |
| GTCTATCA | 0.0459 |
| CCGGGGAC | -0.315 |
| ACATGATA | 0.208 |
| ACCTCGAA | -0.0344 |
| ACAGGAAA | 0.0847 |
| GCTGTTCA | -0.00445 |
| ACAGAATA | 0.182 |
| GAATACAC | 0.1 |
| TAGGACAA | 0.0529 |
| GCAAGTGA | 0.0674 |
| AGGTTACA | -0.00703 |
| CCCGTGGC | -0.396 |
| AATCCAAA | 0.0986 |
| GCCACCTA | -0.0329 |
| CATGGGCA | -0.229 |
| GTGCAGCA | -0.167 |
| AATTCACG | 0.095 |
| CCAAGTGC | -0.285 |
| GACCCGGA | -0.245 |
| GACATGGC | -0.103 |
| CATACCCG | -0.0961 |

| Sequence | PBM E-score |
| --- | --- |
| ACACGCCC | -0.102 |
| GGAATCAA | -0.0965 |
| GAGTACAA | 0.0814 |
| ATAGTGAA | 0.0345 |
| CGGACAAC | -0.0111 |
| CCCGAGCA | -0.19 |
| AATAATGT | 0.08 |
| CACATGAC | 0.257 |
| CGAACGGA | -0.0822 |
| ACAAACAT | 0.0999 |
| AAAAGCTG | -0.0655 |
| CCAGAGTC | -0.108 |
| GTAACGCA | 0.217 |
| ATGTCTTA | 0.245 |
| CCAGCTAA | -0.162 |
| ACACGGGT | -0.189 |
| ATTCAGTA | 0.196 |
| ACCTACAC | -0.0871 |
| GACCGGCA | -0.313 |
| GTGATGAA | 0.111 |
| TCCCAAGA | -0.166 |
| GTAATGCA | 0.286 |

| Sequence | PBM E-score |
| --- | --- |
| AGCGGTGC | -0.249 |
| GATATTAC | 0.34 |
| CGCGTTTC | -0.131 |
| CATGCAGA | -0.0258 |
| AATCGTAT | 0.265 |
| AGCGGCAC | -0.207 |
| CTAGGCTA | -0.362 |
| AGGTGTAG | -0.179 |
| AAATATTC | 0.149 |
| GGGTAACC | -0.0845 |
| CGAGTAAA | 0.0446 |
| AAATAGAA | -0.0185 |
| GTCTGGGA | -0.133 |
| CCCTTGGC | -0.379 |
| GGCACTAC | -0.0301 |
| CGATTTAG | 0.0946 |
| GCGCTAAA | 0.0272 |
| GTTCGTTA | 0.107 |
| AAGTCGGT | -0.229 |
| CGGTTGAG | 0.051 |
| ACTATTCC | 0.05 |
